According to patent US20250108023A1, “Products for Masking Bitterness” (The Third People's Hospital of Henan Province, priority 2023, published 2025):
The name of at least one read-out is uncertain.

Experiment: Oral spray bitterness masking taste test by volunteers with Coptis chinensis standard bitter solution
Format: in vivo, healthy volunteers
Parameters: key: drop in bitterness value (0.5–5.5 scale) from initial
Conditions: 0.2% solution in 60% ethanol as oral spray; original bitterness average 4.0; average of 31 cases
Experimental: Purpose of the experiment: it is to screen out compounds that take effect within 5 seconds, last for 30-120 seconds, and it is expected, by using such kind of compounds, the taste of the drug cannot be felt during the duration (30-120 seconds) when taking the drug.
Principle of the experiment: simulate the process of taking medicine and using the taste masking agents, first spray about 0.5 ml of oral spray on the throat (3 times), and after it takes effect quickly, taste 10 ml of bitter standard solution to screen drugs that can be used in advance and can mask the bitter taste.
• 1: Volunteer screening. The research team strictly screened the recruited volunteers and finally selected healthy volunteers as subjects. They signed informed consent forms before the experiment; • 2: Standard bitterness sample preparation. The bitterness of the samples was divided into five levels, and each level was assigned a certain bitterness value range; • 3: The sensory standard was corrected by the oral taste evaluation method, that is, the sensory standard was corrected by comparing the taste evaluation of the volunteers with the established bitterness value of the reference sample group. Specific steps: when the volunteers are doing the oral tasting test, the reference solutions of various concentrations are placed in the tasting cups, and the volunteers hold one of the solutions in their mouths, time it, and rinse their mouths by using the solution so that the bitter taste perception area at the root and sides of the tongue can fully feel the bitter taste of the drug. […] Then dilute all the selected taste masking drugs, prepare the solution, take 10 ml and put it into the spray bottle, spray it into the mouth 3 times, stay for 5 seconds, drink 10 ml of standard bitterness solution, feel and record the bitterness value, keep the standard bitterness solution in the mouth until the bitterness rises, and record the retention time. • 5: Quality control. […] Since the experimental objects are biological samples and there are individual differences between different subjects, there may be individual outliers in the experimental test data. The Grubbs test method was used to exclude outliers in the data, and then the experimental data were plotted in tables and curves for data analysis.
It is necessary to process the experimental data. Specifically, the Grubbs test method was used to perform a circular test and elimination of outliers on the data, and a bilateral test was used to eliminate outliers in the oral test. Considering the characteristics of biological samples, the detection level was selected as 0.1 and the elimination level was selected as 0.05 in this experiment.
The experimental medicinal material processing method mentioned in the above technical scheme is as follows: Preparation of bitter standard solution, use 10 g of Coptis chinensis powder, add 100 ml of pure water above 90 degrees, stir, let stand for 20 minutes, take the supernatant for use, determine the standard bitterness of 4.0 degrees by oral tasting, dilute 5 times, determine the standard bitterness of 2.0 degrees, dilute 2.0 degrees again 5 times, determine the standard bitterness of 0.5 degrees. Compare with the bitterness scoring table, (level 1 means “no bitterness or almost no bitterness”, the bitterness value is 0.5˜1.5; level 2 means “slightly bitter”, the bitterness value is 1.5˜2.5; level 3 means “bitter but acceptable”, the bitterness value is 2.5˜3.5; level 4 means “very bitter, but still tolerable”, the bitterness value is 3.5˜4.5; level 5 means “unbearable bitterness”, the bitterness value is 4.5˜5.5). Adjust the judgment and cognition of bitterness.
The standard bitterness solution used in this experiment to verify the experimental effect is a 4.0 degree bitterness solution of Coptis chinensis prepared according to the above method.

SMILES	Reduction of bitterness
O=C(/C=C/C=C/c1ccc2c(c1)OCO2)N1CCCCC1 [Piperine, (E,E)-1-[5-(1,3-benzodioxol-5-yl)-1-oxo-2,4-pentadieny1]-piperidine]	2.1
CC1CCC(C(C)C)C(=O)C1 (stereo not shown) [Menthone, 5-methyl-2-isopropylcyclohexanone]	2.8
CC(C)=CCCC(C)=CC=O [Citral, citral]	2.3
COc1cc(C(=O)O)ccc1O [Vanillic acid, 3-methoxy-4-hydroxybenzoic acid]	1.1
COC(=O)C1=C(C)NC(C)=C(C(=O)OC)C1c1ccccc1[N+](=O)[O-] [Nifedipine, reference compound]	0
CCCCC[C@H](O)CC(=O)CCc1ccc(O)c(OC)c1 [Gingerol, 6-gingerol]	2.2
CNC(=O)C(C)(C(C)C)C(C)C [Cooling agent WS-23, N,2,3-trimethyl-2-isopropylbutyramide]	2
C=CCc1ccc(OC(C)=O)c(OC)c1 [Eugenol acetate]	2.4
CC1(C)C2CCC1(C)C(O)C2 (stereo not shown) [Borneolum, 2-borneol]	2.1
COC(=O)[C@@H]1CC2=CC(=O)CC[C@]2(C)[C@@]23O[C@@H]2C[C@@]2(C)[C@@H](CC[C@@]24CCC(=O)O4)[C@H]13 [Eplerenone, reference compound]	0
O=c1c(O)c(-c2ccc(O)c(O)c2)oc2cc(O)cc(O)c12 [Quinolide]	0
C=CC(C)(O)CCC=C(C)C (stereo not shown) [Linalool, linalool]	2.1
CCCN(CCC)S(=O)(=O)c1ccc(C(=O)O)cc1 [Probenecid, reference compound]	0.5
CCOC(=O)C1=C(COCCN)NC(C)=C(C(=O)OC)C1c1ccccc1Cl (stereo not shown) [Amlodipine, reference compound]	0
O=CC=Cc1ccccc1 [Cinnamaldehyde, 3-phenyl-2-propenal]	2.9
O=C(CCc1ccc(O)cc1)c1c(O)cc(O)cc1O [Phloretin]	0
